# Data as given in PMC4242493.
# The list shows a part of the results. The list includes weakly bound sequences.
# Biological target: MaxL homodimer (UniProt P61244)
# Experiment: universal protein-binding microarray (PBM)
# Conditions: PBS-based mixture, 10 nM His-tagged protein dimer, 2% milk, 200 ng/uL BSA, 50 ng/uL salmon testes DNA, 0.02% TX-100; detection with Alexa 488 anti-His …; high values mean tight binding; most listed sequences are background and not binding sites; double strand, one strand shown
# Sequence of UniProt P61244 (P61244 whole entry): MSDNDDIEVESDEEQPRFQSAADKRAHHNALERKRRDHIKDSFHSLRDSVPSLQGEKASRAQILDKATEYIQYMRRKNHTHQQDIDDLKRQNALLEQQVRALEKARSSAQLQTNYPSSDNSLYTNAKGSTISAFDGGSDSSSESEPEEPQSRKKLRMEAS
row,Sequence,binding signal (normalized occupancy)
1,CACAAGCG,0.081
2,AAAAACCC,0.0707
3,CAACCGCG,0.0748
4,CTACCATC,0.0742
5,GAGGCTTA,0.0759
6,CGCGAGGA,0.0811
7,AACTCACT,0.0726
8,CAAGCGGG,0.0669
9,ATACTTCC,0.0774
10,AGATACTA,0.0732
11,ACGTGGAT,0.104
12,GTAGAAGA,0.0701
13,CTGGCCTC,0.0672
14,AACGAGTG,0.0753
15,ATATCCCA,0.0855
16,GATTGAAC,0.0737
17,AGCCGGAA,0.0669
18,CATTCCCA,0.0803
19,CGCAAAAG,0.0662
20,CGCTTTGC,0.0674
21,AACATTCT,0.0752
22,TACCTCAA,0.0732
23,CGCAAGAG,0.0757
24,GCGACAGA,0.0794
25,ATTCGTAA,0.074

row,Sequence,binding signal (normalized occupancy)
1,ACCTAGGT,0.0676
2,ACTGTGCC,0.0693
3,ATGTGCAG,0.0856
4,AGGTTCCA,0.0738
5,ACGAGCAG,0.0759
6,CGGCAAAG,0.0696
7,GCACGCCC,0.0848
8,ACGAGCGA,0.0744
9,TAAACGTA,0.0752
10,GACGTAAC,0.0726
11,ATGACTCC,0.0807
12,ATGCAAGC,0.075
13,ATCTTATC,0.0789
14,GCAGTGAC,0.0743
15,ACAAAAAC,0.0672
16,CGCCTGTA,0.0773
17,GTTTCCCA,0.0718
18,ACTTAAAG,0.0762
19,CGGTAGAG,0.0715
20,AGCCGCCC,0.0683
21,AGGCTAGG,0.0773
22,TCGCATAA,0.08
23,ATCCGCGC,0.0769
24,GCTGGTTA,0.0729
25,AAACAACG,0.079

row,Sequence,binding signal (normalized occupancy)
1,GACCTAAC,0.0788
2,GCACAAAA,0.0706
3,CCCTGGCC,0.0682
4,GATAAGCA,0.0793
5,ATGTAAGA,0.0886
6,GAAACCCA,0.0749
7,CCGGCTAC,0.0657
8,ACGTAATA,0.0796
9,AATCTATA,0.0881
10,CATGTGCG,0.181
11,GATTTCCC,0.0728
12,CTACCCCC,0.0847
13,ATGACTGA,0.0749
14,CGGCTAAG,0.0646
15,ACTGAGAC,0.0684
16,CAGTGAGC,0.0717
17,ACTAGAAA,0.0746
18,CTTCTAGC,0.0719
19,GTCGAGAC,0.0712
20,GAAGTTAC,0.0721
21,AGAGACGG,0.0689
22,CAGTCTAA,0.0768
23,AAAGAACA,0.0707
24,AGCCACAA,0.0748
25,AAAATTAA,0.0694

row,Sequence,binding signal (normalized occupancy)
1,CAGTGAGG,0.0748
2,CCAAAAGA,0.0742
3,CGAGAGAA,0.0734
4,AAACTGAT,0.0753
5,ACACTTGA,0.08
6,AGGCCACC,0.0752
7,ACAAGTAT,0.0781
8,CAATATCG,0.0763
9,ACCACCCG,0.0805
10,CCATGCCC,0.0935
11,CCCTGGCA,0.0717
12,CGATGGGA,0.0717
13,AGGACTAG,0.0726
14,AACTCAAC,0.0713
15,ACGTACGA,0.0805
16,CTGTGTGC,0.0783
17,GGAGGAAA,0.0732
18,TGACGCAA,0.0743
19,CCCCTCTC,0.0747
20,CGGAAGTC,0.0689
21,CGATAAGA,0.0715
22,GATTAGTA,0.075
23,AGAGTCCG,0.0682
24,CCTGTGGA,0.0734
25,AGCTGGTG,0.0712

row,Sequence,binding signal (normalized occupancy)
1,AACCGATA,0.0737
2,AAGATACC,0.0767
3,AGCTTAGG,0.0751
4,CGTTTTTA,0.0742
5,GGGGGCAA,0.0709
6,CGGCCACC,0.0706
7,GGTTCTCA,0.076
8,CCTCAAAC,0.0703
9,CTGACTTA,0.0696
10,ACACCGGG,0.0778
11,AGGTGGGG,0.0822
12,GCTTGCCC,0.0712
13,TGTCAAAA,0.0758
14,AAGCAACA,0.0803
15,ACAAAGGA,0.0755
16,ATCAATGG,0.0774
17,ACACATAG,0.0857
18,AGACAGGA,0.0719
19,ATTCTCAA,0.0804
20,AGCTGGGC,0.0673
21,CTAGGCCA,0.0743
22,AGATGCTC,0.0716
23,CCGTTGAG,0.0702
24,ACTGTCGG,0.0685
25,AATAAATG,0.0853

row,Sequence,binding signal (normalized occupancy)
1,CGTGAGAC,0.0852
2,TCAGTTCA,0.0744
3,GGAGGTCA,0.0759
4,CAATCCTC,0.0774
5,CTCAAGCC,0.0733
6,AGAAGAAA,0.068
7,AGTTTCGG,0.0703
8,ACCATAAG,0.0853
9,CTGTGCAA,0.0754
10,GGAGCACC,0.0769
11,CCAAGCAA,0.0719
12,AAGATACA,0.0801
13,CATTTTGA,0.0815
14,AGCAGTGA,0.0674
15,CAGTCTTA,0.0706
16,GATGAGGC,0.0786
17,ACATGAGG,0.108
18,GGTGTACA,0.0857
19,CCGCCCGG,0.0669
20,CCGTTTAA,0.0797
21,AGGTGGAC,0.0775
22,GGTGCTGA,0.078
23,CAGTTTAA,0.072
24,ATTAGCGA,0.0781
25,GCTTTAAC,0.0738

row,Sequence,binding signal (normalized occupancy)
1,AATTTTAG,0.0735
2,AAAGTTTA,0.0713
3,CTTATGGA,0.0817
4,AGCGTCCT,0.0691
5,GTATACGA,0.0815
6,ACGACATA,0.0804
7,CCTGTCTC,0.0731
8,GAGCAGGA,0.0774
9,CCTAACCA,0.0788
10,GATAAGCC,0.0742
11,AAAATTCC,0.0739
12,GAAAGCCC,0.0707
13,CGGTGAAG,0.0669
14,ACTTTGCG,0.0735
15,AGCGGTTA,0.0705
16,GATTGCCC,0.0716
17,ATGTACTC,0.079
18,AGAGCTCG,0.0631
19,CACTTCAG,0.0728
20,CCTGGCCC,0.0674
21,AGCTGCAA,0.0728
22,AGGTCGCA,0.0729
23,GACGTCAC,0.0804
24,AGGTGAAC,0.0741
25,GCCTAGTA,0.0707

row,Sequence,binding signal (normalized occupancy)
1,ATATTCAA,0.0746
2,CCTGTAAC,0.0755
3,CATACCCC,0.0865
4,ACAGATCT,0.0745
5,ACAGCATA,0.0896
6,ACTGTTAG,0.069
7,ACTGCTTA,0.0691
8,TCTTCTCA,0.0759
9,TTCGCGAA,0.0713
10,AAGAAGTG,0.0785
11,CCATTAGA,0.0743
12,AACCGTAC,0.0755
13,CCCATAGA,0.0816
14,GATACGTA,0.0774
15,ACGTGCAA,0.098
16,CAGAATCC,0.0733
17,CCTCTTCG,0.0738
18,AATGTTGG,0.0822
19,ACCCTTCA,0.0744
20,GAATTCGC,0.0671
21,CGCTTTAG,0.0703
22,CTATAAAA,0.0774
23,CACTTATC,0.0778
24,ATCTAGTG,0.078
25,GGCTGATA,0.0751

row,Sequence,binding signal (normalized occupancy)
1,ACATGGAA,0.0918
2,ACTACCAT,0.0792
3,CAAGAGTC,0.0647
4,CCCCCGAG,0.076
5,CGCCGATA,0.0749
6,ATTGAGCG,0.0707
7,GGACACGA,0.0805
8,GTAGACAA,0.0807
9,GGAGAAAC,0.0778
10,CGACGTCA,0.0748
11,CTGCCATC,0.0793
12,ACAATCGT,0.0764
13,CCTAGACG,0.0677
14,CTCAGCCA,0.0752
15,AAGTCCAA,0.0685
16,ATCGGAGG,0.0719
17,AGCACCGG,0.074
18,CTGATATA,0.0784
19,ACGCACTA,0.0766
20,CCAGCCCA,0.068
21,AGTAAGTA,0.0783
22,CGCATTCC,0.0738
23,CACGTATA,0.0829
24,CGGCTGAC,0.0716
25,AAAGGACT,0.076

row,Sequence,binding signal (normalized occupancy)
1,CAGATCGC,0.0677
2,CAGGTTCA,0.0757
3,ATTTTGTA,0.0715
4,ATGGCGCA,0.0778
5,CACTTACC,0.0761
6,ACAATGTA,0.085
7,TGCCGGCA,0.0761
8,CAAACGAG,0.0736
9,AATTTCTA,0.0767
10,CACCCCTG,0.0814
11,CACGGCGC,0.0735
12,AAATGGTC,0.078
13,ATACATAG,0.0774
14,TCGGTGCA,0.0712
15,CTTGATGC,0.0757
16,CAAGGTCG,0.0698
17,CGCTATAC,0.0775
18,ATGTCGGA,0.0778
19,GTCGAGTA,0.0742
20,GTACACAC,0.0842
21,ATGGTGGC,0.0852
22,CGGATCGA,0.0731
23,TAGGCTAA,0.0678
24,AGGCGTGG,0.098
25,GACGGTCC,0.0678

row,Sequence,binding signal (normalized occupancy)
1,CCTACTCC,0.0781
2,GACTGTGC,0.0769
3,AGCGCTAA,0.0686
4,ATAAAAGC,0.0779
5,GCGGCACC,0.0711
6,GCCGAGGC,0.0691
7,AATCCCTG,0.0749
8,GTTCCGGA,0.0676
9,GTTCGGAA,0.0709
10,ACTACTCG,0.0816
11,TACTGTGA,0.0738
12,GATTGGGA,0.076
13,GGACATGA,0.0803
14,AGTTTACC,0.0716
15,CATCATGA,0.0846
16,AGCGGATC,0.0698
17,AGGGTACA,0.0761
18,GGATTCCC,0.0689
19,TATTGCGA,0.0779
20,ATGATAAA,0.0793
21,GGCCGCCC,0.0664
22,AAGTGTAG,0.0767
23,TCTTCGAA,0.069
24,AGTACCAG,0.0708
25,ATAGAGGG,0.0791

row,Sequence,binding signal (normalized occupancy)
1,GTCCACAC,0.0845
2,ATATTCGA,0.0814
3,GACTCCGA,0.0695
4,AGGTATGA,0.0848
5,ACGTACTG,0.0773
6,CGAATTAG,0.074
7,GGAGGACA,0.0815
8,ACCGAGCA,0.0683
9,AAGAACAG,0.0731
10,AACTTTCG,0.074
11,GACGCCGC,0.0708
12,ATCATCTA,0.0805
13,GGGCCGCA,0.0799
14,GACAATAC,0.0781
15,CGCACTAC,0.0743
16,TATACTCA,0.0776
17,ATTCTTTC,0.0747
18,CATTACCG,0.0757
19,GAGCGAGC,0.0678
20,CTGTTAAA,0.0748
21,AGGAGAAA,0.0735
22,CACAGAGC,0.0736
23,GTTAGGCA,0.0756
24,CTGTTTTA,0.0767
25,CCATTACC,0.0715

row,Sequence,binding signal (normalized occupancy)
1,CTAAATCC,0.071
2,GAAACATA,0.0848
3,CCACCTAG,0.0714
4,ATAGTCGG,0.0724
5,ATGCGCTC,0.0847
6,GAGGCTCA,0.07
7,ATTAGCCG,0.0727
8,ATTATACC,0.0816
9,CCACGTGG,0.971
10,ATTACGGA,0.0797
11,CAAAATCA,0.0749
12,AGGACTAC,0.0744
13,AATAACAC,0.0908
14,ACATTACC,0.0868
15,CAGTGACC,0.0802
16,AACTCTAC,0.0729
17,TCTCAAGA,0.0757
18,CATCAGTC,0.0762
19,CGTAACAA,0.0751
20,CATCCCAA,0.0789
21,GTTAAAGA,0.0776
22,CAAGTTTA,0.0742
23,CACAGCCG,0.0698
24,CTTCCGGA,0.0629
25,ATATCGTC,0.0819

row,Sequence,binding signal (normalized occupancy)
1,GTCGATTA,0.0759
2,CGGTGCCA,0.0723
3,CGAGTAAA,0.0759
4,AAACCCTT,0.0745
5,ATGTGACA,0.0901
6,ACGCCCAC,0.0879
7,CATAAGGC,0.0829
8,CCAGTCAG,0.0724
9,AAGTCGTA,0.0752
10,CACCTGCA,0.0843
11,GGATAAGA,0.0785
12,AGTGCAGG,0.0726
13,GGGAGCAA,0.0719
14,ACAGAAAA,0.0727
15,GCCTCCTA,0.0722
16,CCCAATAG,0.0758
17,CCAGCGAA,0.0664
18,CGAGGCTA,0.0772
19,AACATGGG,0.0935
